Measurements as given in article PMC4336329 (PLoS ONE, 2015).
In all, about 310,000 compounds went through this assay and about 2,200 (0.71%) showed an effect of 50% or more. The effect is printed as a negative number. The list shows a part of the results.

target: human ether-à-go-go-related gene (hERG) potassium channel (human, UniProt Q12809); experiment: primary screen, population patch clamp on CHO cells stably expressing hERG
Sequence (Q12809 whole entry, looked up): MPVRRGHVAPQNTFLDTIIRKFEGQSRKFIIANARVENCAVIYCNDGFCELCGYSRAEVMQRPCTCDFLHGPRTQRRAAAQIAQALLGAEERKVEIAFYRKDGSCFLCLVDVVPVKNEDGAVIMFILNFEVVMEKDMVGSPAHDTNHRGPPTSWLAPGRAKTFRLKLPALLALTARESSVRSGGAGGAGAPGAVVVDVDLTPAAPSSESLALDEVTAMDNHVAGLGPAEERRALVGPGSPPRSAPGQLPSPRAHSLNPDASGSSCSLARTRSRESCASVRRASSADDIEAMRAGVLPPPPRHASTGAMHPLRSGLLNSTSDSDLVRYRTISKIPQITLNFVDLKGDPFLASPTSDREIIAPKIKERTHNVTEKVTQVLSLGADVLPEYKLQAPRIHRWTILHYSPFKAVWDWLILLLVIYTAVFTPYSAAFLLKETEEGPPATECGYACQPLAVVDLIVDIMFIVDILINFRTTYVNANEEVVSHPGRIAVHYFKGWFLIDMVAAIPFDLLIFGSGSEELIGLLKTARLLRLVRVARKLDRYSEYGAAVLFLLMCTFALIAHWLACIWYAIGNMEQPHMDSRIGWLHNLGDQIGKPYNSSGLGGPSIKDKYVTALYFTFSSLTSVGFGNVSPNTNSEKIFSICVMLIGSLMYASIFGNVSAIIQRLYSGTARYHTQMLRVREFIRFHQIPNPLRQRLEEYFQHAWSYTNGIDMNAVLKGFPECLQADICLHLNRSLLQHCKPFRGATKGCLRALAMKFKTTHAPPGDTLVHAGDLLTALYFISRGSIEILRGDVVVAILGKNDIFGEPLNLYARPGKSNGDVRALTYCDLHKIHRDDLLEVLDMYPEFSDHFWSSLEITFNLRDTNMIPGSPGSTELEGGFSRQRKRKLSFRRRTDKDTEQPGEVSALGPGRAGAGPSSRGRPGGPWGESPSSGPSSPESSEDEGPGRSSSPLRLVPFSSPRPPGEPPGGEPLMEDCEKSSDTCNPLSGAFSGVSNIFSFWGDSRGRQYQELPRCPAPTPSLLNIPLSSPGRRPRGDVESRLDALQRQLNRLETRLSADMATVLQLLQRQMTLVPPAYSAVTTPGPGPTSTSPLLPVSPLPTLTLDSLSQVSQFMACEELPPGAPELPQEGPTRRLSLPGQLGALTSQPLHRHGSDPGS

Row | SMILES | hERG current change (%, negative = inhibition) at 1uM
1 | CCC(C)(C)NC(=O)C(C(C)C)N(CC1CCCO1)C(=O)CNS(=O)(=O)c1ccccc1 (stereo not shown) | 8.12%
2 | COc1cccc(CN2CCNC(=O)C2CC(=O)NCCCN2CCCC2=O)c1 (stereo not shown) | 6.76%
3 | CC(=O)c1ccc(NC(=S)NNC(=O)NC2CCCCC2)cc1 | 5.2%
4 | CNC(=O)Nc1cccc(-c2ccnc(C)n2)c1 | 11.8%
5 | Cc1ccc(S(=O)(=O)N2CCN(CCOc3c(Cl)cccc3Cl)CC2)cc1C | 2.9%
6 | Cc1cccc2c1NC(=O)/C2=C\C(=O)c1cccs1 | 6.6%
7 | CN1CCN(CCCNC(=S)Nc2ccc(F)c(Cl)c2)CC1 | 1.71%
8 | O=[N+]([O-])c1ccc(Cc2cncc(O)c2)cc1 | 8.72%
9 | COc1ccccc1/C=C\C=N\n1c(-c2ccc(Cl)cc2Cl)n[nH]c1=S | 14.1%
10 | COc1cc(/C=C2/NC(=O)N(Cc3ccccc3F)C2=O)ccc1Oc1ccc([N+](=O)[O-])cn1 | 20.9%
11 | CCC(O)C1CCN(C(=O)c2ccc(OC3CCN(Cc4ccccn4)CC3)cc2)CC1 (stereo not shown) | 14.6%
12 | Cc1ccc(C2N(c3ccc(F)cc3)C(=O)C3CCCN32)cc1 (stereo not shown) | 6.14%
13 | CC(C(=O)Nc1cccc([N+](=O)[O-])c1)[n+]1ccccc1.[Br-] (stereo not shown) | 3.14%
14 | O=C(NCc1cn2ccsc2n1)c1c(F)cccc1Cl | 14.5%
15 | CSC1=N/C(=C\c2ccc(C)s2)C(=O)S1 | 15.4%
16 | Cn1c(=O)n(C)c2cc([N+](=O)[O-])c(N3CCN(C(=O)c4ccccc4Br)CC3)cc21 | -20.4%
17 | Cc1ccc(C(=O)c2nocc2C(=O)c2cccs2)cc1 | 4.06%
18 | CCc1ccc(N(C(=O)c2snc(C(N)=O)c2N)C(C(=O)NC2CCCC2)c2ccco2)cc1 (stereo not shown) | -1.12%
19 | O=S(=O)(NCC(c1ccco1)N1CCN(c2ccccc2F)CC1)c1ccc2c(c1)OCCO2 (stereo not shown) | 30.7%
20 | Cc1cc(C)c(OCC(=O)Nc2cccc(O)c2)cc1C | 9.06%
21 | COc1ccc(Cl)cc1S(=O)(=O)n1c([N+](=O)[O-])cnc1C | -19%
22 | COc1ccc(C(=O)Nn2c(SCC(=O)NC3CCCC3)nc3ccccc3c2=O)cc1 | -9.3%
23 | CCCOc1ccc(N2C(=O)CC(N(O)c3ccccc3)C2=O)cc1 (stereo not shown) | 9.72%
24 | COC(=O)C(C)N(c1ccc(C)cc1)S(=O)(=O)c1c(C)[nH]c(=O)[nH]c1=O (stereo not shown) | 6.77%
25 | O=C(c1ccc(Cl)s1)N1CCCC1 | 6.35%
26 | CC(=NCc1ccc2c(c1)OCO2)c1c(O)n(Cc2ccccc2)c(=O)[nH]c1=O | 3.16%
27 | Cc1ccc(N=Cc2nc(/C=C/c3cccc([N+](=O)[O-])c3)oc2O)cc1 | 7.1%
28 | COC(=O)C1=C(c2ccccc2OCc2ccccc2)C[C@@H]2CC[C@H]1N2C(=O)NC1CCN(Cc2ccccc2)CC1 | 13.2%

Row | SMILES | hERG current change (%, negative = inhibition) at 1uM
29 | Cc1cccc(CNC(=O)Cn2ccc3cc(S(=O)(=O)N4CCCC4)ccc32)c1 | 19.4%
30 | CCCCCC(=O)Nc1nc(C)c(-c2csc(Nc3cc(Cl)ccc3OC)n2)s1 | 15.7%
31 | CN(C)C(=S)Nc1ccc(S(=O)(=O)N2CCCCC2)cc1 | -3.42%
32 | COc1ccc(/C=N/NC(=O)CNC(=O)c2ccc3c(c2)OCCO3)c(C(=O)O)c1OC | 10.3%
33 | CCOc1ccccc1N(CC(=O)Nc1cccc2ccccc12)S(C)(=O)=O | 8.32%
34 | CC(C)(C)OC(=O)N1CCC(C(=O)N[C@H](Cc2ccccc2)C(=O)O)CC1 | 11.5%
35 | O=C1CN(Cc2cc(=O)oc3cc4c(cc23)CCC4)CCN1 | -29.3%
36 | OCC1(Cc2ccccc2)CCN(Cc2cnc(-c3ccc(Cl)cc3)nc2)CC1 | -13.4%
37 | COc1cccc(C2C(C(=O)c3cc4ccccc4o3)=C(O)C(=O)N2c2cc(C)on2)c1 (stereo not shown) | 12.1%
38 | O=C(CN1c2ccccc2Sc2ccccc21)NNC(=S)Nc1ccc(Cl)cc1 | 11.5%
39 | O/N=C1\CC/C(=N\O)c2nn(-c3ccccc3Cl)nc21 | 3.48%
40 | CC(C)(C)OC(=O)NC(CNCc1ccccc1)Cc1ccccc1 (stereo not shown) | 3.93%
41 | O=C(NC1CCN(C(=O)Nc2ccc(F)cc2)CC1)c1cccc(F)c1 | 9.2%
42 | Cc1ccc(NC(=O)CSc2nnc(CNC(=O)c3ccco3)n2C)cc1 | -1.97%
43 | C=C(C)C1CC=C(C)/C(=N\NC(=S)Nc2ccc(C)cc2)C1 (stereo not shown) | 13.7%
44 | CCOC(=O)c1ccc(NC(=O)c2cc(=O)[nH]c3ccccc23)cc1 | 9.68%
45 | CCOC(=O)N1CCN(S(=O)(=O)N2CCCC(C(=O)NCc3ccc(OC)cc3OC)C2)CC1 (stereo not shown) | 5.69%
46 | CCOc1c(C)cnc2c1c(=O)n(CC(=O)NCC1CCCO1)c(=O)n2C (stereo not shown) | 10.6%
47 | Cc1ccc(C(=O)NC2CC2)cc1S(=O)(=O)N1CCOCC1 | 7.61%
48 | Cc1cc(C)c(C)c(C(=O)CSc2nnc(-c3ccc4[nH]c(C)c(C)c4c3)o2)c1C | 11.6%
49 | CCc1ccc(OCC(=O)Nc2ccc(-c3nc4ccccc4o3)c(O)c2)cc1 | 3.68%
50 | CC(C)Cc1cc(C(=O)NCc2ccco2)no1 | 4.97%
51 | O=C(CC1Sc2ccccc2NC1=O)Nc1cccnc1 (stereo not shown) | -6.25%
52 | COc1cc(C(=O)N2CCN(c3ccccc3F)CC2)ccc1OCC(=O)N1CCOCC1 | -34.2%
53 | CC(=O)c1ccc(NC(=O)C2(S(=O)(=O)c3ccccc3)CC2)cc1 | 8.42%
54 | COc1ccc2oc(C(=O)OCC(=O)NC3(C#N)CCCC3)c(C)c2c1 | 15.8%
55 | CCOC(=O)C1=C(CSc2nccn2C)NC(=O)NC1c1ccc2c(c1)OCO2 (stereo not shown) | 8.12%
